Results taken from PubChem BioAssay AID1468 (National Center for Advancing Translational Sciences (NCATS), 2008).
Several values for one entry are separate records, joined by “and”; a condition that tells them apart may be missing. Identical values can stand only once. Hit rate of the full screen: of about 280,000 compounds, about 1,100 (0.39%) were called active. The inconclusive results got no clear call from the source; some entries with a clear call stand among them for comparison. Calls come from the whole dose curve; as a rule, active = well fitted inhibition curve with a large enough effect; inconclusive = small, poorly fitted or top-dose-only effect, or effect the other way; inactive = flat fitted curve, though single readings scatter. Where the call is inconclusive, the potency comes from a doubtful curve fit.
% is set by controls: 0 for no effect and ±100 for the full control effect; potency is the fitted concentration of half-maximal effect; tags give direction and shape of the fitted curve.
Note: nearly all actives have a fitted effect of over 55% in size.

The compounds below were run against Microtubule-associated protein tau (Homo sapiens) (UniProt P10636) (assay: qHTS for Inhibitors of Tau Fibril Formation, Fluorescence Polarization). Conditions: K18 P301L tau heparin fibrillization, Alexa594 FP, 6 h; series mostly up to 57.7 µM; activity, negative = inhibition: at the top concentration.
Chain of UniProt P10636 (P10636 whole entry, looked up): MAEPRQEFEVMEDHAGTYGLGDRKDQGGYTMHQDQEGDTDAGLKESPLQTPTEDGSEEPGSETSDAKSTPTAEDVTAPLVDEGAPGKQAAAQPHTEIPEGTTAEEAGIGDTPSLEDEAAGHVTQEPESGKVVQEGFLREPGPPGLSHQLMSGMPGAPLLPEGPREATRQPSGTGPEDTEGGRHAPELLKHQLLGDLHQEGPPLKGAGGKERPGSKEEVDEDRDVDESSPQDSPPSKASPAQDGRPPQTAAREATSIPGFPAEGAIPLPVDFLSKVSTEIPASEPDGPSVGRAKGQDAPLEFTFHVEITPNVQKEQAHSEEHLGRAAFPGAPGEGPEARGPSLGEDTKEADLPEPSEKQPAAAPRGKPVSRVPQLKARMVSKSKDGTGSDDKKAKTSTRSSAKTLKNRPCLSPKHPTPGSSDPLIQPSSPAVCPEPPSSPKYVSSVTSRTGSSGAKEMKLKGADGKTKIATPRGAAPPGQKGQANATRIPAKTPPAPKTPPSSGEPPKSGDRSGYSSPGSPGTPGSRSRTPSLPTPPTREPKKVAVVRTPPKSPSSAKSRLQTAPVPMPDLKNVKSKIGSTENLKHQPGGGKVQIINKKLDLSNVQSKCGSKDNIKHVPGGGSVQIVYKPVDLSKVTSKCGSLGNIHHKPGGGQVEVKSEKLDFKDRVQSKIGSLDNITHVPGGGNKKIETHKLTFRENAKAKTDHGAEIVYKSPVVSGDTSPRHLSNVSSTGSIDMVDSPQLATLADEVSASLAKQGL
In short: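 Quantitative HTS format: compounds meet 15 uM recombinant K18 P301L tau and Alexa 594-tau tracer in 100 mM sodium acetate pH 7; 20 uM heparin triggers fibrillization at 37 C over 6 hr; FP gives the signal.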
For `O=C(CC12CC3CC(CC(C3)C1)C2)N/N=C\c1ccc[nH]1`, the “activity, negative = inhibition” value was inactive: 12.7%.
`COc1ccc(CCNc2c(N)n(Cc3ccccc3)c(=O)[nH]c2=O)cc1OC` was tested, and the Potency was inconclusive: 20 µM [inhibitor, partial curve].
In the case of `CCOc1ccccc1CNC(=O)CCCn1ccc2cc(S(=O)(=O)N3CCCC3)ccc21`, the Potency is reported as inconclusive: 39.8 µM [activator, single point].
With `COCCNC(=S)NNc1cccc(C(=O)O)c1` the Potency was inconclusive: 8.91 µM [inhibitor, partial curve].
In the case of `O=C(Cn1ccc(C(F)(F)F)n1)N=Nc1c(O)[nH]c2ccc(Br)cc12`, the Potency is reported as inconclusive: 44.7 µM [inhibitor, single point].
For `C=CC1=C2C=C(C3CC3)N(C3CCCCC3)C=C2C(=O)C(C)(OC(=O)c2ccco2)C1=O` (stereo unspecified), the activity, negative = inhibition was inactive: -12.2% [at 11.6 µM].
In the case of `Cc1ccc(CC(=O)NCCS(=O)c2ccc(C)cc2)cc1` (stereo unspecified), the Potency is reported as inconclusive: 3.16 µM [inhibitor, single point].
In the case of `CCOC(=O)c1c(NC(=O)C2c3ccccc3Oc3ccccc32)sc(C)c1CC`, the Potency is reported as inconclusive: 31.6 µM [inhibitor, single point].
`COc1ccc2nc(SCc3nc(N)nc(Nc4ccccc4)n3)[nH]c2c1` was tested, and the “activity, negative = inhibition” value was inactive: -5.61%.
In the case of `O=S(=O)(O)c1cccc(N=Nc2c(O)ccc3ccccc23)c1`, the Potency is reported as inconclusive: 44.7 µM [activator, single point].
`CCN(CC)C(=O)CSc1n[nH]c(=S)n1N` was tested, and the Potency was inconclusive: 5.01 µM [inhibitor, single point].
With `CCOc1cc(C(=S)N2CCCCC2)ccc1OCC(=O)NCc1ccccc1` the “activity, negative = inhibition” value was inactive: 1.5%.
In the case of `Cc1ccccc1N1C(=O)c2sc3nc4c(c(=O)n3c2C1=O)CCC4`, the Potency is reported as inconclusive: 22.4 µM [inhibitor, single point].
With `CC(C)Cn1c(N)c(C(=O)COC(=O)c2cc(C3CC3)nc3ccccc23)c(=O)n(C)c1=O` the Potency was inconclusive: 15.8 µM [inhibitor, partial curve, poor fit].
With `CC1(OC(=O)C2CCCC2)C(=O)C=C2C=C(c3ccsc3)N(CCN3CCOCC3)C=C2C1=O` (stereo unspecified) the Potency was “inactive and inconclusive: 7.94 µM [inhibitor, single point]”.
For `Cc1cc(Cl)ccc1NC(=O)NC1CCN(S(=O)(=O)c2ccc(F)cc2)CC1`, the Potency was inconclusive: 20 µM [inhibitor, partial curve].
With `O=C(NC(CSSCC(NC(=O)c1ccccc1)C(=O)O)C(=O)O)c1ccccc1` (stereo unspecified) the Potency was inconclusive: 39.8 µM [inhibitor, single point].
With `CCCOc1ccc(C2C(C(=O)c3ccc(C)o3)=C(O)C(=O)N2CCN2CCOCC2)cc1OC` (stereo unspecified) the Potency was inconclusive: 25.1 µM [inhibitor, partial curve, poor fit].
`O=C(CN1C(=O)c2cccc3cccc1c23)Nc1ccc(S(=O)(=O)N2CCOCC2)cc1` was tested, and the Potency was inconclusive: 20 µM [inhibitor, single point].
`O=C(O)c1cc2nc(-c3ccccc3)cc(C(F)(F)F)n2n1` was tested, and the “activity, negative = inhibition” value was inactive: -1.19%.
With `Cc1ccc(S(=O)(=O)NCC2CCC(C(=O)NCCCOC(C)C)CC2)cc1` (stereo unspecified) the Potency was “inactive”.
For `COC(=O)c1nc(NC(=O)c2ccccc2Cl)n[nH]1`, the Potency was inconclusive: 25.1 µM [activator, single point].
With `CCCCNc1nc2ccccc2c2nc(-c3ccccc3)nn12` the Potency was inconclusive: 12.6 µM [inhibitor, partial curve].
`CN1CCN(CC(=O)N2c3ccccc3C(C)(c3ccc(Cl)cc3)CC2(C)C)CC1` (stereo unspecified) was tested, and the Potency was inconclusive: 5.01 µM [inhibitor, partial curve].
With `CC(C)(Oc1ccc(Br)cc1)C(=O)Nc1cc(-c2nc3ccccc3[nH]2)ccc1Cl` the Potency was active: 15.8 µM.
For `COc1ccc2oc(-c3cccc(NC(=O)CSc4ccc(Cl)cc4)c3)nc2c1`, the Potency was inconclusive: 2.51 µM [inhibitor, full curve].
In the case of `Cc1[nH]c2ccccc2c1C1=NNC(=Nc2ccc(F)cc2)SC1`, the Potency is reported as inconclusive: 22.4 µM [inhibitor, single point].
With `NC(=O)COC(=O)c1cc(-c2ccco2)nc2ccccc12` the Potency was inconclusive: 0.398 µM [inhibitor, full curve].
In the case of `CCOc1ccc(NC(=O)c2oc3ccccc3c2NC(=O)c2ccc(OC)cc2OC)cc1`, the Potency is reported as inconclusive: 28.2 µM [inhibitor, partial curve].
For `COc1ccc(S(=O)(=O)N(C)CC(=O)N2CCN(C)CC2)cc1C`, the “activity, negative = inhibition” value was inactive: -0.933%.
`COc1ccc(NC(=O)Nc2ccc(C)cc2OC(F)F)cc1OC` was tested, and the Potency was inconclusive: 20 µM [activator, partial curve, poor fit].
`S=c1[nH]nc(NCCCN2CCOCC2)s1` was tested, and the Potency was inconclusive: 14.1 µM [inhibitor, partial curve].
`C/C(=N\N=C(/N)SC1CC(=O)N(c2ccc(Br)cc2)C1=O)c1cccs1` (stereo unspecified) was tested, and the Potency was inconclusive: 39.8 µM [inhibitor, single point].
With `O=c1cc(-c2ccc(F)cc2)nc(SCc2nc(-c3ccc(Cl)cc3)no2)[nH]1` the Potency was inconclusive: 31.6 µM [inhibitor, partial curve, poor fit].
For `Cc1ccsc1/C=N/NC(=O)Cc1ccc(Cl)cc1`, the “activity, negative = inhibition” value was inactive: -9.16%.
In the case of `O=C(O)CCCCCN1C(=O)C(O)=C(C(=O)/C=C/c2ccccc2)C1c1ccccc1[N+](=O)[O-]` (stereo unspecified), the Potency is reported as inconclusive: 0.0251 µM [inhibitor, full curve, poor fit].
For `CC(=O)c1ccc(NC(=O)CSc2nc(=O)n(Cc3ccncc3)c3c2CCC3)cc1`, the “activity, negative = inhibition” value was inactive: -9.67%.
In the case of `CCOC(=O)CC1=C(C#N)C(c2cccnc2)C(C(=O)OCC)=C(N)O1` (stereo unspecified), the Potency is reported as inconclusive: 15.8 µM [inhibitor, partial curve, poor fit].
For `CCS(=O)(=O)c1ncc(N(Cc2ccco2)Cc2ccccc2F)c(C(=O)Nc2cccc(Cl)c2)n1`, the Potency was inconclusive: 20 µM [inhibitor, partial curve].
With `CCc1ccc(-c2nn(-c3ccccc3)cc2CSC(=N)N)cc1` the Potency was inconclusive: 39.8 µM [inhibitor, single point].
In the case of `COc1cc2nc(SCc3ccc(Cl)cc3Cl)n(Cc3cccs3)c(=N)c2cc1OC`, the Potency is reported as inconclusive: 25.1 µM [inhibitor, single point].
